# The full ranking holds about 81,000 sequences; the median of “one-hybrid fitness for binding parS DNA” is about -0.17, and the highest 2% start at about 0.51. The list shows a part of the results.
# B1: Caulobacter ParB omega fusion; a variant is named by its letters at X, in order, B8GW30 (parent)
# chain: MESVVVGEPGMSEGRRGLGRGLSALLGEVDAAPAQAPGEQLGGSREAPIEILQRNPDQPRRTFREEDLEDLSNSIREKGVLQPILVRPSPDTAGEYQIVAGERAWRAAQRAGLKTVPIMVRELDDLAVLEIGIIENVQRADLNVLEEALSYKVLMEKFERTQENIAQTIGKSXSHVANXMRLLXLPDEVQSYLVSGELTAXHARAIAAAADPVALAKQIIEGGLSVRETEALARKAPNLSAGKSKGGRPPRVKDTDTQALESDLSSVLGLDVSIDHRGSTGTLTITYATLEQLDDLCNRLTRGI
# Variants of: B1
# Test: one-hybrid fitness for binding parS DNA (scaled: cognate 1, non-cognate 0); higher = stronger binding
# Conditions: with parS DNA site
# Method in brief: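 In E. coli USO, a HIS3 reporter with its site placed 19 bp from the promoter was used to select Caulobacter ParB variants randomised at four specificity codons. Growth lasted 48 hours at 37°C on histidine-free M9 containing 0.1 mM IPTG and 5 mM 3-AT. Fitness was taken as the log change in variant-to-wild-type read ratio from Illumina sequencing of pre- and post-selection plasmids, rescaled between the non-cognate and cognate sites.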
row,Variant,one-hybrid fitness for binding parS DNA
1,VTFT,≤ 0.2
2,DLEE,≤ 0.2
3,TQLI,≤ 0.2
4,KCCR,≤ 0.2
5,TVWC,≤ 0.2
6,RCDP,0.204
7,PAYV,≤ 0.2
8,RVLH,0.229
9,ADQI,≤ 0.2
10,LFYG,≤ 0.2
11,HNFP,≤ 0.2
12,AKFG,≤ 0.2
13,FYST,≤ 0.2
14,CRGY,≤ 0.2
15,PVKL,≤ 0.2
16,MNQG,≤ 0.2
17,AYNL,≤ 0.2
18,HVQW,≤ 0.2
19,SFQC,≤ 0.2
20,AVGY,≤ 0.2
21,RRIM,≤ 0.2
22,PMIS,≤ 0.2
23,QPMI,≤ 0.2
24,TSMG,≤ 0.2

row,Variant,one-hybrid fitness for binding parS DNA
1,IGYS,≤ 0.2
2,HSMD,≤ 0.2
3,KPGL,≤ 0.2
4,QWST,≤ 0.2
5,KLWL,≤ 0.2
6,YMVR,≤ 0.2
7,KRTM,≤ 0.2
8,IHTR,≤ 0.2
9,DVPG,≤ 0.2
10,KIKT,≤ 0.2
11,HASL,≤ 0.2
12,CGKV,≤ 0.2
13,AKPC,≤ 0.2
14,ATAM,≤ 0.2
15,PCRQ,≤ 0.2
16,NRRM,≤ 0.2
17,IPGQ,≤ 0.2
18,TLYA,≤ 0.2
19,ATQY,≤ 0.2
20,CSCN,≤ 0.2
21,NWGR,≤ 0.2
22,QQNS,≤ 0.2
23,LRVK,≤ 0.2
24,CSHD,≤ 0.2

row,Variant,one-hybrid fitness for binding parS DNA
1,HGAV,≤ 0.2
2,EFRT,≤ 0.2
3,DHWG,≤ 0.2
4,DWQS,≤ 0.2
5,AGNY,≤ 0.2
6,GASI,≤ 0.2
7,MHHY,≤ 0.2
8,SNAG,≤ 0.2
9,WRRT,≤ 0.2
10,FHTG,≤ 0.2
11,DLTR,≤ 0.2
12,LCLI,≤ 0.2
13,NPTT,≤ 0.2
14,NNRW,≤ 0.2
15,FDAY,≤ 0.2
16,DMTC,≤ 0.2
17,TRSQ,≤ 0.2
18,RADF,≤ 0.2
19,SHPG,≤ 0.2
20,MTRA,≤ 0.2
21,AQMF,≤ 0.2
22,TVYF,≤ 0.2
23,LRKG,≤ 0.2
24,RKPM,≤ 0.2

row,Variant,one-hybrid fitness for binding parS DNA
1,LCHR,≤ 0.2
2,TFRW,≤ 0.2
3,KLCR,≤ 0.2
4,YEYV,≤ 0.2
5,QGNS,≤ 0.2
6,HQTD,≤ 0.2
7,NPAR,≤ 0.2
8,SQVL,≤ 0.2
9,CCSQ,≤ 0.2
10,PDYI,≤ 0.2
11,CETR,≤ 0.2
12,MIHW,≤ 0.2
13,INGS,≤ 0.2
14,ECSS,≤ 0.2
15,QIIV,≤ 0.2
16,DRYV,≤ 0.2
17,PNWA,≤ 0.2
18,NMHV,≤ 0.2
19,DEDM,≤ 0.2
20,CALF,≤ 0.2
21,HLDC,≤ 0.2
22,VTPT,≤ 0.2
23,CNFS,≤ 0.2
24,PQHG,≤ 0.2

row,Variant,one-hybrid fitness for binding parS DNA
1,WSAH,≤ 0.2
2,DGCC,≤ 0.2
3,QCWL,≤ 0.2
4,PAHI,≤ 0.2
5,VVHG,≤ 0.2
6,CYTN,≤ 0.2
7,DSFT,≤ 0.2
8,WARS,≤ 0.2
9,PRKM,≤ 0.2
10,TCFG,≤ 0.2
11,NVNI,≤ 0.2
12,LKCC,≤ 0.2
13,APKC,≤ 0.2
14,NLKR,≤ 0.2
15,TRWR,≤ 0.2
16,VESD,≤ 0.2
17,VFVN,≤ 0.2
18,SFPC,≤ 0.2
19,VRLG,≤ 0.2
20,MSSN,≤ 0.2
21,NSTC,≤ 0.2
22,QTQL,≤ 0.2
23,EMES,≤ 0.2
24,RCIH,0.213

row,Variant,one-hybrid fitness for binding parS DNA
1,VHFG,≤ 0.2
2,QMIN,≤ 0.2
3,DWAS,≤ 0.2
4,SNHY,≤ 0.2
5,PGYT,≤ 0.2
6,KRHP,≤ 0.2
7,YKTY,≤ 0.2
8,GSDS,≤ 0.2
9,SLEE,≤ 0.2
10,FHSS,≤ 0.2
11,GGKG,≤ 0.2
12,LPHA,≤ 0.2
13,LDIC,≤ 0.2
14,DVCI,≤ 0.2
15,QPDE,≤ 0.2
16,WLDC,≤ 0.2
17,REEI,≤ 0.2
18,EDAS,≤ 0.2
19,SRHY,≤ 0.2
20,RRVE,≤ 0.2
21,AYLR,≤ 0.2
22,QIRD,≤ 0.2
23,WVGR,≤ 0.2
24,PPDF,≤ 0.2

row,Variant,one-hybrid fitness for binding parS DNA
1,YKAG,≤ 0.2
2,RCYA,0.619
3,EALV,≤ 0.2
4,TKCL,≤ 0.2
5,NTTK,≤ 0.2
6,MCSL,≤ 0.2
7,KGNR,≤ 0.2
8,RNPI,≤ 0.2
9,RAVA,0.542
10,RNMH,≤ 0.2
11,WLHF,≤ 0.2
12,KLSM,≤ 0.2
13,FQVT,≤ 0.2
14,GKMG,≤ 0.2
15,QYAI,≤ 0.2
16,RCMR,≤ 0.2
17,VDYT,≤ 0.2
18,HEWR,≤ 0.2
19,HDCR,≤ 0.2
20,HSQF,≤ 0.2
21,GAAG,≤ 0.2
22,LWIV,≤ 0.2
23,MHRT,≤ 0.2
24,SRMQ,≤ 0.2

row,Variant,one-hybrid fitness for binding parS DNA
1,GEVY,0.21
2,CVPT,≤ 0.2
3,MNSE,≤ 0.2
4,WRER,≤ 0.2
5,LIIV,≤ 0.2
6,GVHP,≤ 0.2
7,RPHM,≤ 0.2
8,PDCR,≤ 0.2
9,GFIR,≤ 0.2
10,ISPH,≤ 0.2
11,YAFS,≤ 0.2
12,HVKS,≤ 0.2
13,LWMS,≤ 0.2
14,VPSC,≤ 0.2
15,VPTL,≤ 0.2
16,PSYK,≤ 0.2
17,KAVL,≤ 0.2
18,CLFD,≤ 0.2
19,RGKE,≤ 0.2
20,IHPY,≤ 0.2
21,RESE,≤ 0.2
22,WYTG,≤ 0.2
23,KADG,≤ 0.2
24,VQQM,≤ 0.2

row,Variant,one-hybrid fitness for binding parS DNA
1,MEVE,≤ 0.2
2,EARY,≤ 0.2
3,PRHI,≤ 0.2
4,SYCC,≤ 0.2
5,PNTH,≤ 0.2
6,MMAT,≤ 0.2
7,VLPC,≤ 0.2
8,MRIM,≤ 0.2
9,AMAK,≤ 0.2
10,RHRS,0.823
11,HPHV,≤ 0.2
12,KSLY,≤ 0.2
13,PIYL,≤ 0.2
14,RMEY,0.409
15,REAR,≤ 0.2
16,ACYF,≤ 0.2
17,VVQA,≤ 0.2
18,QKDR,≤ 0.2
19,KQRK,≤ 0.2
20,MRTG,≤ 0.2
21,QDAW,≤ 0.2
22,CSTW,≤ 0.2
23,WDTT,≤ 0.2
24,MAMS,≤ 0.2

row,Variant,one-hybrid fitness for binding parS DNA
1,YNTI,≤ 0.2
2,FMPF,≤ 0.2
3,RNDM,≤ 0.2
4,HASV,≤ 0.2
5,RIMV,≤ 0.2
6,PMRM,≤ 0.2
7,RMLE,≤ 0.2
8,ASYS,≤ 0.2
9,RMYF,0.289
10,VWDR,≤ 0.2
11,AWDR,≤ 0.2
12,CKSN,≤ 0.2
13,RHTP,≤ 0.2
14,WCIR,≤ 0.2
15,TPRE,≤ 0.2
16,AQMI,≤ 0.2
17,PVMW,≤ 0.2
18,AGCY,≤ 0.2
19,ASTI,≤ 0.2
20,KLSA,≤ 0.2
21,HIWS,≤ 0.2
22,PPKI,≤ 0.2
23,RQKD,≤ 0.2
24,QARS,≤ 0.2

row,Variant,one-hybrid fitness for binding parS DNA
1,RHPG,0.451
2,PYRQ,≤ 0.2
3,VWMS,≤ 0.2
4,SQEL,≤ 0.2
5,KGFG,≤ 0.2
6,YATC,≤ 0.2
7,PQWC,≤ 0.2
8,RRGV,≤ 0.2
9,LDQS,≤ 0.2
10,FAAH,≤ 0.2
11,PCER,≤ 0.2
12,WRVQ,≤ 0.2
13,TPTM,≤ 0.2
14,NNIC,≤ 0.2
15,QAAH,≤ 0.2
16,NNLT,≤ 0.2
17,NPFV,≤ 0.2
18,EFGR,≤ 0.2
19,MSRA,≤ 0.2
20,LISR,≤ 0.2
21,KDTV,≤ 0.2
22,HIKG,≤ 0.2
23,RFPP,≤ 0.2
24,VVPN,≤ 0.2

row,Variant,one-hybrid fitness for binding parS DNA
1,WSST,≤ 0.2
2,CWDT,≤ 0.2
3,ETTF,≤ 0.2
4,RHMI,≤ 0.2
5,HRYW,≤ 0.2
6,YNNV,≤ 0.2
7,VPAS,≤ 0.2
8,NLFM,≤ 0.2
9,RHSC,0.924
10,TCFR,≤ 0.2
11,CGQT,≤ 0.2
12,NLSI,≤ 0.2
13,KPRS,≤ 0.2
14,RQNV,≤ 0.2
15,CQHS,≤ 0.2
16,WSGA,≤ 0.2
17,QTDN,≤ 0.2
18,HKNA,≤ 0.2
19,SAVR,≤ 0.2
20,THQC,≤ 0.2
21,GRAN,≤ 0.2
22,PADQ,≤ 0.2
23,HRLI,≤ 0.2
24,GLCT,≤ 0.2

row,Variant,one-hybrid fitness for binding parS DNA
1,RMIA,0.537
2,AMES,≤ 0.2
3,HLQS,≤ 0.2
4,VHPI,≤ 0.2
5,VSMM,≤ 0.2
6,NQMA,≤ 0.2
7,LAGF,≤ 0.2
8,VMSI,≤ 0.2
9,RAIK,≤ 0.2
10,EHKA,≤ 0.2
11,HPDD,≤ 0.2
12,ASTV,≤ 0.2
13,VRIL,≤ 0.2
14,AAHV,≤ 0.2
15,SPHH,≤ 0.2
16,RWMQ,≤ 0.2
17,RNPC,0.358
18,RAVF,≤ 0.2

# From a collection of fitness landscapes (doi:10.1016/j.celrep.2020.107928)
